The source of these data is patent US20220389066A1 (Affibody, published 2022).

The target in experiment [1] is T1, HMGB1(red), fully reduced form of full-length HMGB1 (HMGB1C23hC45hC106h) (rat, UniProt P63159 1-215, all cysteines reduced (C23h, C45h, C106h)).
T1 construct: Produced by HMGBiotech; also called HMGB1(reduced); b-HMGB1(red)
T1 sequence: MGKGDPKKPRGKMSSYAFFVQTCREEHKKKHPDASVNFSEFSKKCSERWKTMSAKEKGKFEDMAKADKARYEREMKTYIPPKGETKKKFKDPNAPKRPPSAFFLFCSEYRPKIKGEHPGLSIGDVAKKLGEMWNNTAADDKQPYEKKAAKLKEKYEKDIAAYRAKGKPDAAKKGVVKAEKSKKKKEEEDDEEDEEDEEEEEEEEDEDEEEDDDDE
As to the kind of experiment: SPR (Biacore 2000); target immobilized on CM5, His6-Z variant injected 50-1350 nM; 1:1 model. As to the method: (§1) Binding analysis of mutated Z variants: A binding analysis was performed using a Biacore 2000 instrument. All alanine mutated Z variants, together with the original Z variant ZH 01, were analyzed against GST-boxA(red), HMGB1(red), boxA(disulfide) and HMGB1(disulfide). The immobilizations and Biacore analyses were performed essentially as described in Example 3. However, in these analyses, the different targets were directly coupled to separate flow cells of different CM5 chip surfaces and a flow rate of 30 μl/min was used. The ligand immobilization levels on the surfaces were 1410 RU for GST-boxA(red), 1380 RU for HMGB1(red), 540 RU for boxA(disulfide) and 2900 RU for HMGB1(disulfide). The analytes, i.e. the Z variants, were each diluted in HBS-EP buffer (or in HBS-EP+2 mM DTT for use in analysis with reduced targets GST-boxA(red) and HMGB1(red)), within a concentration range of 50 to 1350 nM and injected for 3 min, followed by dissociation in running buffer for 35 min. No regeneration buffer was used in the analyses. Instead, the dissociation time was enough for all binders to dissociate from the chip surfaces. HBS-EP was used as running buffer for targets boxA(disulfide) and HMGB1(disulfide) while HBS-EP+2 mM DTT was used for reduced targets GST-boxA(red) and HMGB1(red). The dissociation constants were calculated as in Example 3.
(§2) Binding analysis of mutated Z variants: The interaction of HMGB1 with ZH 01 and the 13 mutated variants thereof was analyzed in a Biacore instrument by injecting various concentrations of the Z variants over surfaces containing immobilized GST-boxA(red), HMGB1(red), boxA(disulfide) and HMGB1(disulfide), respectively. A summary of the dissociation constants from the experiments, which were obtained by using a 1:1 interaction model, is given in Table 12.
In general terms: SPR reads the build-up and loss of mass on a sensor chip optically.

The target in experiment [2] is T2, HMGB1(disulfide), disulfide linked form of full-length HMGB1 (HMGB1C23-C45C106h) (rat, UniProt P63159 1-215, disulfide C23-C45; C106 reduced).
T2 construct: unlabelled in Biacore and Attana; also called b-HMGB1(disulfide)
T2 sequence: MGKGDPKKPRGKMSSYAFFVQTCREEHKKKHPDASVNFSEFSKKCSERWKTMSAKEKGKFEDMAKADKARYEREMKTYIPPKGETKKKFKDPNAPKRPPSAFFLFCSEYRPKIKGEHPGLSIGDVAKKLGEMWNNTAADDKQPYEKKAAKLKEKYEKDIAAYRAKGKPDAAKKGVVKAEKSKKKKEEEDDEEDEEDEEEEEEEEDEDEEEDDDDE
The description is as above. As to the method: as §1, §2

Experiment [3] addresses T3, boxA(disulfide), disulfide linked form of A-box domain of HMGB1 (human, UniProt P09429 1-89, disulfide C23-C45).
T3 construct: also called b-boxA(disulfide)
T3 sequence: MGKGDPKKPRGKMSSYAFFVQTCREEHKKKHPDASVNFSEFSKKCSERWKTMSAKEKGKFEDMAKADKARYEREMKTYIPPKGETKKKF
The description is as above. As to the method:
as §1, §2

The target of experiment [4] is T4, GST-boxA(red), reduced form of A-box domain of HMGB1 with N-terminal GST tag (human, cysteines reduced).
T4 construct: Used biotinylated (b-GST-boxA(red)) in ELISA; also called b-GST-boxA(red)
Described as above. As to the method: as §1, §2

In experiment [5] the target is T4, GST-boxA(red), reduced form of A-box …. Kind of experiment: ELISA; periplasmic Z-ABD captured on anti-ABD antibody, 2 nM b-GST-boxA(red). As to the method:
ELISA screening of Z variants against reduced A-box and B-box: The binding of Z variants to HMGB1 was analyzed in ELISA assays. Half-area 96-well ELISA plates (Greiner, cat. no. 675061) were coated at 4° C. overnight with 2 μg/ml of an anti-ABD goat antibody (produced in-house) diluted in coating buffer (50 mM sodium carbonate, pH 9.6; Sigma, cat. no. C3041). The antibody solution was poured off and the wells were washed in water and blocked with 100 μl of PBSC (PBS supplemented with 0.5% casein; Sigma, cat. no. C8654) for 1-3 h at RT. The blocking solution was discarded and 50 μl periplasmic solutions, diluted 1:16 with PBST 0.05%, were added to the wells and incubated for 1.5 to 2.5 h at RT under slow agitation. As a negative control, periplasmic ABD was added. The supernatants were poured off and the wells were washed 4 times with PBST 0.05%. Then, 50 μl of either b-GST-boxA(red), at a concentration of 2 nM, or b-GST-boxB(red), at a concentration of 100 nM, in PBSC+1-2 mM DTT, was added to each well of A-box binding Z-variants or B-box binding Z-variant, respectively. The plates were incubated for 1 h at RT followed by washes as described above. Streptavidin conjugated HRP (Thermo Scientific, cat. no. N100) diluted 1:30,000 in PBSC+1-2 mM DTT, was added to the wells and the plates were incubated for approximately 45 min. After washing as described above, 50 μl ImmunoPure TMB substrate (Thermo Scientific, cat. no. 34021) was added to the wells and the plates were treated according to the manufacturer's recommendations. The absorbance at 450 nm was measured using a multi-well plate reader, Victor3 (Perkin Elmer).
ELISA screening of Z variants against reduced A-box and B-box: The clones obtained after four cycles of selection were produced in 96-well plates and screened for b-GST-boxA(red) or b-GST-boxB(red) binding activity in ELISA.

For experiment [6], the target named is T2, HMGB1(disulfide), disulfide linked form …. As to the kind of experiment: ELISA; periplasmic Z-ABD captured on anti-ABD antibody, 100 nM b-HMGB1(disulfide).
Experiment [7] addresses T3, boxA(disulfide), disulfide linked form …. Kind of experiment: ELISA; periplasmic Z-ABD captured on anti-ABD antibody, 1000 nM b-boxA(disulfide). (In general: An ELISA detects its analyte on a solid surface through an enzyme-linked reagent.)
The target in experiment [8] is T4, GST-boxA(red), reduced form of A-box …. As to the kind of experiment: ELISA titration; captured periplasmic Z-ABD, dilution series of b-GST-boxA(red). As to the method: EC50 analysis of Z variants: A sub-group of HMGB1 binding Z variants was subjected to an analysis of their response against a dilution series of b-GST-boxA(red) or b-GST-boxB(red) following the procedure described above. The Z variants ZH 01 (SEQ ID NO:1), ZH 02 (SEQ ID NO:2) and ZH 03 (SEQ ID NO:3) were diluted 1:16 in PBST 0.05% and target protein b-GST-boxA(red) was diluted in PBSC (PBS with 0.5% casein (Sigma cat no. C-8654)) with 0.5-1 mM DTT and added at a concentration of 1 μM and diluted stepwise 1:5 down to 60 μM. The Z variants ZH 30 (SEQ ID NO:30) and ZH 31 (SEQ ID NO:31) were diluted 1:16 in PBST 0.05% and b-GST-boxB(red) was diluted in PBSC without DTT present and added at a concentration of 7 μM and diluted stepwise 1:5 down to 90 μM. As a background control, all Z variants were also assayed with no target protein added. Periplasm containing the ABD moiety only was used as a negative control. In the same assay, the selectivity of the Z variants was tested by incubating periplasm samples with the opposite HMGB1 domain (i.e. b-GST-boxA(red) or b-GST-boxB(red)) than the one used as target in selection, added at a concentration of 1000 nM. Data were analyzed using GraphPad Prism 5 and non-linear regression, and EC50 values (the half maximal effective concentration) were calculated.
EC50 analysis of Z variants: A subset of Z variants having the highest ELISA values in the ELISA screening experiments described above was selected and subjected to a target titration in ELISA format. Periplasm samples were incubated with a serial dilution of either b-GST-boxA(red) or b-GST-boxB(red). Obtained values were analyzed and EC50 values calculated (Table 5).

A value given as a limit tells only on which side of the number the result lay.

B1: His6-tagged ZH20 (ZH 01 W18A), MGSSHHHHHHLQ-[ZH20]-VD (designed binder)
chain: MGSSHHHHHHLQVDAKYAKEDWDAFWEIIALPNLTDAQQRAFIYKLEDDPSQSSELLSEAKKLNDSQAPKVD
Broadly, the Kd is a measure of binding affinity in units of concentration. A high value points to a looser complex. Regarding B1, the Kd is 90 nM in experiment [1], 1500 nM in experiment [2], 50000 nM in experiment [3] and 130 nM in experiment [4].

B2: His6-tagged ZH21 (ZH 01 D24A), MGSSHHHHHHLQ-[ZH21]-VD (designed binder)
chain: MGSSHHHHHHLQVDAKYAKEDWDAFWEIIWLPNLTAAQQRAFIYKLEDDPSQSSELLSEAKKLNDSQAPKVD
In the case of B2, the Kd in experiment [1] worked out at 64 nM; in experiment [2], 670 nM; in experiment [3], 1500 nM; in experiment [4], 110 nM.

B3: His6-tagged ZH22 (ZH 01 A25S), MGSSHHHHHHLQ-[ZH22]-VD (designed binder)
chain: MGSSHHHHHHLQVDAKYAKEDWDAFWEIIWLPNLTDSQQRAFIYKLEDDPSQSSELLSEAKKLNDSQAPKVD
Take B3: the Kd in experiment [1] is 9 nM; in experiment [2], 190 nM; in experiment [3], 330 nM; in experiment [4] it was 17 nM.

B4: His6-tagged ZH23 (ZH 01 Q27A), MGSSHHHHHHLQ-[ZH23]-VD (designed binder)
chain: MGSSHHHHHHLQVDAKYAKEDWDAFWEIIWLPNLTDAQARAFIYKLEDDPSQSSELLSEAKKLNDSQAPKVD
Regarding B4, the Kd came to 41 nM in experiment [1], 870 nM in experiment [2], 790 nM in experiment [3] and 67 nM in experiment [4].

B5: ZH 03 as periplasmic ABD fusion AQHDEALE-[ZH 03]-VDYV-[ABD]-YVPG (designed binder)
chain: AQHDEALEVDAKYAKEAWQAMEEILWLPNLTNTQQLAFIYKLEDDPSQSSELLSEAKKLNDSQAPKVDYVLAEAKVLANRELDKYGVSDYYKNLINNAKTVEGVKALIDEILAALPYVPG
notes: domain: GA3
A word on the EC50: it is the concentration at which the effect is half-maximal. Low values mean an effect from little substance, high ones a need for much substance. As to B5, the “ELISA response (absorbance 450 nm)” value in experiment [5] came to 0.6 AU; in experiment [6], 2.96 AU; in experiment [7], 1.17 AU. Also, the “response relative to the blank control” value in experiment [5], in experiment [6] and in experiment [7] was at least 3 x blank control throughout. This molecule had an EC50 in experiment [8] of 2.7 nM.

B6: ZH 02 as periplasmic ABD fusion AQHDEALE-[ZH 02]-VDYV-[ABD]-YVPG (designed binder)
chain: AQHDEALEVDAKYAKEAEDAMHEILWLPNLTWEQQKAFIYKLEDDPSQSSELLSEAKKLNDSQAPKVDYVLAEAKVLANRELDKYGVSDYYKNLINNAKTVEGVKALIDEILAALPYVPG
notes: domain: GA3
Turning to B6, the “ELISA response (absorbance 450 nm)” value in experiment [5] amounted to 0.2 AU; in experiment [6], 1.17 AU; in experiment [7], 2.02 AU. Also, the “response relative to the blank control” value in experiment [5], in experiment [6] and in experiment [7] was at least 3 x blank control throughout. This molecule showed an EC50 in experiment [8] of 5.6 nM.

B7: ZH 01 as periplasmic ABD fusion AQHDEALE-[ZH 01]-VDYV-[ABD]-YVPG (designed binder)
chain: AQHDEALEVDAKYAKEDWDAFWEIIWLPNLTDAQQRAFIYKLEDDPSQSSELLSEAKKLNDSQAPKVDYVLAEAKVLANRELDKYGVSDYYKNLINNAKTVEGVKALIDEILAALPYVPG
notes: domain: GA3
In the case of B7, the “ELISA response (absorbance 450 nm)” value in experiment [5] was determined as 0.7 AU; in experiment [6], 3.07 AU; in experiment [7], 3.06 AU. The “response relative to the blank control” value in experiment [5], in experiment [6] and in experiment [7] was at least 3 x blank control in each case. The molecule further came in with an EC50 in experiment [8] of 2.2 nM.
